Reference: PubChem BioAssay AID1508623 (National Center for Advancing Translational Sciences (NCATS), 2021)
About 450 (0.94%) of roughly 48,000 compounds were called active. Inconclusive results (about 19%) are left out. Calls follow the shape of the dose curve; as a rule, active = well fitted inhibition curve with a large enough effect; inconclusive = small, poorly fitted or top-dose-only effect; inactive = no such curve, though single readings can be large or run the other way. This is one part of the list.

Assay: Primary qHTS for Identification of Small Molecule Inhibitors of Huntingtin Promoter Activity; also: nearly all actives have a fitted effect of over 50% in size
Conditions: HEK293 HTT promoter firefly luciferase reporter (activity 0% = vehicle and -100% = no light), 24 h; series mostly up to 57.5 µM; activity change, negative = inhibition: at the top concentration
Summary of the method: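 Firefly luciferase signal from promoter-reporter HEK293 cells was scaled between vehicle (0%) and zero RLU (-100%). Compounds were tested at final concentrations of up to 57.5 uM over 24 h at 37 degrees C. PTC124 at 50 uM final served as control inhibitor.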

Activity change, negative = inhibition, inactive:
COc1ccccc1CNC(=O)CN(c1ccc(C)cc1)S(=O)(=O)c1c(C)noc1C -17%
NC(=O)N1CCC(CC(=O)N2CCC([C@H]3c4ncc(Br)cc4CCc4cc(Cl)cc(Br)c43)CC2)CC1 -24.8%
Cc1ccc(C2C=C(c3ccc(F)cc3)Nc3nc(CCCO)nn32)cc1 (centres undefined) -14.1%
COc1ccc(OC)c(NC(=O)c2cnc(N3CCCC3)nc2C)c1 -5.5%
O=C(CN1C(=O)CCc2cc(S(=O)(=O)N3CCOCC3)ccc21)NCc1ccccc1Cl -2.53%
CCCOc1ccc(NC(=O)CC2C(=O)N(c3ccc(C)cc3)C(=O)N2C2CCCC2)cc1 (centres undefined) 17%
O=C(CSc1nc2c([nH]c3ccccc32)c(=O)n1-c1ccc(F)cc1)NCc1ccco1 -20.9%
CC1=C(C(=O)Nc2cc(Cl)ccc2C)C(c2ccco2)n2ncnc2N1 (centres undefined) -4.74%
CCSc1nnc2c(n1)OC(c1sccc1C)N(C(C)=O)c1ccccc1-2 (centres undefined) -30%
CCOC(=O)C1CCCN(S(=O)(=O)c2cc3c(cc2C)NC(=O)CO3)C1 (centres undefined) -26.4%
Cc1ccc(OCC(=O)Nc2ccc3nc(SCC(N)=O)sc3c2)cc1 0.184%
COc1ccc(Cn2c(=O)c3oc4ccccc4c3n(Cc3cccc(F)c3)c2=O)cc1 -15.9%
Cc1c(C)n(C)c2ccc(C(=O)NCCc3ccc(Cl)cc3)cc12 2.89%
Cc1ccc(-n2nc3ccc(NC(=O)Cc4ccc(Cl)cc4)cc3n2)cc1 -10.7%
CCOC(=O)c1c(NC(=O)C(C)Sc2cn(CCNC(=O)c3ccccc3OC)c3ccccc23)sc2c1CCC2 (centres undefined) -32.8%
COC(=O)c1sc2cccc(F)c2c1S(=O)(=O)NCc1ccc(Cl)cc1 0.746%
CCOC(=O)COc1ccc(CC)cc1C(=O)c1ccn2nc(-c3ccc(Cl)cc3)cc2n1 -5.59%
COc1cccc(CNC(=O)CSC2=Nc3ccccc3C3=NC(C)C(=O)N23)c1OC (centres undefined) -8.59%
CCOc1ccc(NC(=O)Cn2c(=O)n(CCCC(=O)NCc3ccc4c(c3)OCO4)c(=O)c3ccccc32)cc1 3.19%
Cc1ccc(CSc2ncc(Cl)c(C(=O)Oc3ccc(F)cc3)n2)cc1 27.8%
COc1ccccc1N1CCN(CCCNC(=O)c2cnn(-c3ccc(C)c(C)c3)c2C2CCN(C(=O)OC(C)(C)C)CC2)CC1 -23.2%
Fc1ccc(-c2cc(C(F)(F)F)nc(NCc3ccccc3)n2)cc1 -18.1%
COc1ccccc1CNC(=O)c1cnc2c(-c3ccccc3)c(C)nn2c1C -13.1%
CCc1nn(CC(=O)N2CCN(c3ccc(Cl)cc3)CC2)c(=O)c2cc3occc3n12 -8.39%
CCn1c(=O)n(-c2cccc(Cl)c2)c(=O)c2sc3ccccc3c21 -5.83%
O=C(Nc1ccc(Cl)cc1)c1cc2nc(-c3ccc4c(c3)OCO4)cc(C(F)(F)F)n2n1 -7.24% [at 11.5 µM]
COc1ccc(C(=O)Nc2ccccc2-c2nc(-c3ccc(OC)cc3)no2)cc1 5.85%
O=C(CCC(=O)c1ccccc1)Nc1ccc(F)c(Cl)c1 -5.64%
COc1ccc(OC)c(/C=C(\C#N)c2nc3ccccc3c(=O)[nH]2)c1 -3.34%
O=S(=O)(NCCS(=O)(=O)N1CCN(c2ccccc2)CC1)c1ccc(Cl)cc1 -19%
Cc1sc2c(c1C)c(=O)n(CCc1ccccc1)c(=O)n2Cc1ccc(F)cc1 -14.9%
CCOC(=O)c1ccc2c(c1)[C@@H]1C=CC[C@@H]1[C@H](c1cccc(OC)c1OC)N2 -3.8%
CCCC(=O)C1=C(c2cccc(OC)c2)N(C(=O)CCC)n2c(C)nnc2S1 -28%
Cc1cc(C)c2sc(N(Cc3cccnc3)C(=O)CCOc3ccccc3)nc2c1 -28.6%
Cn1ccc2c(OCC(=O)Nc3ccc([N+](=O)[O-])cc3)cccc2c1=O -33.2%
CSc1ccc(CNC(=O)CN2C(=O)C3CCCCN3c3ccc(C(=O)N4CCCC4)cc32)cc1 (centres undefined) -9.98%
CCOC(=O)C1CCN(C(=O)c2ccc3c(c2)sc2nc(-c4ccc(C)cc4)cn23)CC1 12.6%
COC(=O)c1cc2sc(C)cc2n1CC(=O)Nc1cccc(SC)c1 -19.2%
Cc1cccc(OCC(=O)Nc2ccc3oc(-c4ccccc4F)nc3c2)c1 18.5%
COc1ccc(-c2nc3cc(C(C)C)ccc3o2)cc1NC(=O)c1ccc(C)c(Cl)c1 4.1%
O=S(=O)(NCc1nc2cccnc2n1Cc1ccc(F)cc1)c1ccc(Cl)s1 -16.6%
CCc1ccc(NC(=O)C2CCN(S(=O)(=O)c3c(C)noc3/C=C/c3ccco3)CC2)cc1 -24.1%
CCCCCC(=O)N(c1ccc(OCC)cc1)S(=O)(=O)c1ccc2c(c1)n(C)c(=O)n2C 11.9%
Cc1ccc(CCNC(=O)c2ccc(CS(=O)(=O)Cc3cccc(C)c3)o2)cc1 -25.6%
Cc1ccc(NC(=O)Cn2cc3c(n2)CCC(C)C3)cc1C (centres undefined) -16.8%
CCn1ccc2cc(S(=O)(=O)N3CCCN(C(=O)NCC(=O)OC)CC3)ccc21 -21.1%
Cc1ccccc1C(=O)NC1(C(F)(F)F)N=C(c2ccccc2)N(Cc2ccccc2)C1=O (centres undefined) -24.3%
COc1cccc(-c2cc(C(F)(F)F)n3nc(C)c(-c4ccccc4)c3n2)c1 -10.7%
O=C(COc1ccccc1[N+](=O)[O-])Nc1cc(-c2nc3cc(Cl)ccc3o2)ccc1Cl 2.86%
COC(=O)c1ccc(Oc2nc3c(c(=O)n(C)c(=O)n3C)n2C(C)C)cc1 -8.9%
CCc1ccccc1N(C)C(=O)c1nn(C)c2c1CSc1ccccc1-2 -3.28%
Cc1ccc2nc(N3CCC(C(=O)NCc4ccc(F)cc4)CC3)[nH]c2c1 15.2%
CCC12CN3CC(C)(CN(C1)C3c1c[nH]c3ccc(OC)cc13)C2=O (centres undefined) -17.8%
Cc1ccc(OCC(=O)Nc2ccc3nc(SCC(=O)N4CCOCC4)sc3c2)cc1C -2.85%
CCC(Sc1nc2cc3c(cc2c(=O)n1CCCC(=O)NCc1ccc(OC)cc1)OCO3)C(=O)NCCCOC (centres undefined) -4.21%
CCOC(=O)C1CCCN(C(=O)CCS(=O)(=O)c2cc3c(cc2Cl)NC(=O)CO3)C1 (centres undefined) -9.95%
Cc1ccc2cccc(NC(=O)c3ccc(C#N)cc3F)c2n1 -7.16%
Cc1ccccc1NC(=O)Cn1c(=O)n(CCC(=O)NCc2ccc3c(c2)OCO3)c(=O)c2sccc21 -11.6%
O=C1CN(C(=O)c2ccc(S(=O)(=O)N3CCCCC3)cc2)C(c2ccc(F)cc2)c2cc(Br)ccc2N1 (centres undefined) -42.5%
